Results reported in the supplement of paper PMC4466236.
The full ranking holds about 33,000 sequences; the median of “E-score (dimensionless, -0.5 to 0.5)” is about -0.058, and the highest 2% start at about 0.35. Some of the results follow.

system: MvaT; test: PBM 8-mer E-score (mean of HK and ME arrays) (E-score (dimensionless, -0.5 to 0.5)); higher = stronger relative binding preference; most listed sequences are background and not binding sites
In short: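 Full-length P. aeruginosa MvaT, with glutathione S-transferase fused to its N-terminus (cloned into pTH6838 by isothermal assembly), was tested by protein binding microarray using a previously described protocol. Two universal double-stranded 60-mer arrays (ME and HK) were used, each with a constant 25-mer primer region and a variable 35-mer region covering all 8-mers. The rank-based 8-mer E-score (-0.5 to 0.5) is the mean of the two arrays, parsed with a custom Python script.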

Sequence | PBM 8-mer E-score
AGAAACGG | -0.0989
GCTGATTA | 0.0388
GACGCGTA | -0.165
CTACGCAC | -0.15
ATTACACC | 0.17
CGTTACAC | -0.0759
GCGTTTCA | 0.0513
CCCTTGGA | -0.316
CCAGCGTA | -0.264
GGTGTCCA | -0.177
ACTGAAAG | -0.0474
ACTATTTA | 0.345
CGATCGAA | 0.0143
ATGGCGCA | 0.00875
AATCCGCG | -0.0171
GAGTAGTA | 0.107
CCAGTACC | -0.225
CCTACCCG | -0.16
CACATAGC | -0.135
AGCCGGGG | -0.1
CAATGGCA | -0.151
AGCTATGC | -0.226

Sequence | PBM 8-mer E-score
AATTCTGT | 0.141
GCCGAACC | -0.115
AACAATTA | 0.391
GGTGGGAC | -0.191
AACTATCC | 0.208
CTACTTAC | 0.221
CATCTGAC | -0.163
AGGAGATC | -0.28
AGCCTTAA | -0.0656
AAGGGTAC | -0.0522
AACAAGTG | 0.0247
GTGGAGCA | -0.12
AAGCATTG | -0.0753
GAACGGAC | -0.211
CGACCCAC | -0.135
AGGAAGCC | -0.252
AATCTTCA | 0.156
GCTCCGAA | -0.143
AGTATTCC | 0.0623
CAGCACTA | -0.0158
AAGTATTG | 0.214
GGAGCCGA | -0.232

Sequence | PBM 8-mer E-score
CCCAGTTC | -0.148
TGTCCACA | -0.0993
TATTTGCA | 0.326
ACACTGAT | 0.178
GTGTTTGA | 0.103
CAAAGTCA | 0.0289
AGATGCAC | -0.237
CTATTCGA | 0.0943
CTTGCCGC | -0.0843
GAAGCTTC | -0.144
AAAAATGC | 0.0931
GAATTCAA | 0.0832
CCGAGGTA | -0.117
GGCATCCA | -0.181
GGTTAGCA | -0.0956
CTAAAGAC | -0.0237
CCAAGACC | -0.21
ATCGTTCA | -0.0616
AGATATAA | 0.373
CTTTTTCA | -0.00205
ACTGATTG | 0.139
AACCTATT | 0.167

Sequence | PBM 8-mer E-score
AGGGAACG | -0.228
CCCTAAGA | -0.184
CCATGATC | -0.205
ATCCACCC | 0.00492
TCAGTGAA | -0.0378
ACCTGGCG | -0.257
GCTAGGGA | -0.249
GGCCTAAC | -0.288
CAACTGCC | -0.132
ATTCTGGC | -0.00876
AAAGAAAC | 0.143
GATCCAGC | -0.0939
AAAAATCC | -0.0237
CCACGTAC | -0.12
CAGCGAGA | -0.018
ATGAGCAC | 0.00796
ACGTGAAG | 0.0431
CGGGGAAG | -0.29
AGCTATAA | 0.155
CTTTTTTA | 0.216
